Reference: article PMC12820563, “FoxP3 forms a head-to-head dimer in vivo and stabilizes its multimerization on adjacent microsatellites”
Some of the results follow.

biological target: T1, MBP-FoxP1dN (Mus musculus, UniProt P58462 326-579); test: PD-seq (MBP pull-down with sequencing); 20 mM Tris-HCl pH 7.5, 100 mM NaCl, 1.5 mM MgCl2, 0.4 uM protein, 0.1 uM dsDNA library, 30 min, room temperature, amylose pull-down; high values mean tight binding; details: protein: recombinant; tags: His6-MBP; chain copies: 2; dsDNA, one strand shown
T1 sequence: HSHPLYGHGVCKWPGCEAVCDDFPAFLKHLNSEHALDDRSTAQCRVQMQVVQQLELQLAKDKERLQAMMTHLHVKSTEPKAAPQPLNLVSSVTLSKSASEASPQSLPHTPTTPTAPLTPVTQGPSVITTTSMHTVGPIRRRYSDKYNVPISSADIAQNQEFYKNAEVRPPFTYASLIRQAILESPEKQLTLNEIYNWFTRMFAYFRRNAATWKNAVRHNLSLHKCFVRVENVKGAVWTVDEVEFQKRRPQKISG
Outline: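 Binding is the reads-per-million enrichment of pull-down relative to input, pooled across replicates. For this, 0.4 µM His6-MBP-tagged mouse FoxP3 or FoxP1 fragment lacking the N-terminus, made in E. coli, was incubated with 0.1 µM Klenow-filled double-stranded degenerate DNA library for 30 min at room temperature in Tris pH 7.5 buffer with NaCl and MgCl2. Complexes bound to amylose resin were washed three times before proteinase K released the DNA for PCR barcoding and Illumina sequencing.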

| Sequence | binding signal |
| --- | --- |
| GATGATTGTTCTCCCAGCTGATGAATTAAGCAGTTCGAGTAAACAAATTTTCCTAATCTTTCTGTTCAAGCGCCATCTAC | 0.979 RPM ratio (pull-down/input) |
| GATGATTGTTCTCCCAGCTGATGAATTAACTTTCTCGAGTAAACAAATTTTCCTAATCTTTCTGTTCAAGCGCCATCTAC | 0.921 RPM ratio (pull-down/input) |
| GATGATTGTTCTCCCAGCTGATGAATTAACTGTTTCGAGTAAACAAATTTTCCTAATCTTTCTGTTCAAGCGCCATCTAC | 0.973 RPM ratio (pull-down/input) |
| GATGATTGTTCTCCCAGCTGATGAATTCACGTAGTCGAGTAAACAAATTTTCCTAATCTTTCTGTTCAAGCGCCATCTAC | 0.794 RPM ratio (pull-down/input) |
| GATGATTGTTCTCCCAGCTGATGAATTCTACTCGTCGAGTAAACAAATTTTCCTAATCTTTCTGTTCAAGCGCCATCTAC | 0.902 RPM ratio (pull-down/input) |
| GATGATTGTTCTCCCAGCTGATGAATTTCCGCGGTCGAGTAAACAAATTTTCCTAATCTTTCTGTTCAAGCGCCATCTAC | 0.761 RPM ratio (pull-down/input) |
| GATGATTGTTCTCCCAGCTGATGAATTCCTTCGCTCGAGTAAACAAATTTTCCTAATCTTTCTGTTCAAGCGCCATCTAC | 0.786 RPM ratio (pull-down/input) |
| GATGATTGTTCTCCCAGCTGATGAATTAATAGTGTCGAGTAAACAAATTTTCCTAATCTTTCTGTTCAAGCGCCATCTAC | 1.12 RPM ratio (pull-down/input) |
| GATGATTGTTCTCCCAGCTGATGAATTATCGTACTCGAGTAAACAAATTTTCCTAATCTTTCTGTTCAAGCGCCATCTAC | 1.09 RPM ratio (pull-down/input) |
| GATGATTGTTCTCCCAGCTGATGAATTCCACAACTCGAGTAAACAAATTTTCCTAATCTTTCTGTTCAAGCGCCATCTAC | 0.92 RPM ratio (pull-down/input) |
| GATGATTGTTCTCCCAGCTGATGAATTCCGGGCCTCGAGTAAACAAATTTTCCTAATCTTTCTGTTCAAGCGCCATCTAC | 0.733 RPM ratio (pull-down/input) |
| GATGATTGTTCTCCCAGCTGATGAATTGCATTGTTCGAGTAAACAAATTTTCCTAATCTTTCTGTTCAAGCGCCATCTAC | 1.43 RPM ratio (pull-down/input) |
| GATGATTGTTCTCCCAGCTGATGAATTGTCCTGATCGAGTAAACAAATTTTCCTAATCTTTCTGTTCAAGCGCCATCTAC | 0.945 RPM ratio (pull-down/input) |
| GATGATTGTTCTCCCAGCTGATGAATTGTGGTGATCGAGTAAACAAATTTTCCTAATCTTTCTGTTCAAGCGCCATCTAC | 1.1 RPM ratio (pull-down/input) |
| GATGATTGTTCTCCCAGCTGATGAATTGTAAACCTCGAGTAAACAAATTTTCCTAATCTTTCTGTTCAAGCGCCATCTAC | 1.38 RPM ratio (pull-down/input) |
| GATGATTGTTCTCCCAGCTGATGAATTTACACGGTCGAGTAAACAAATTTTCCTAATCTTTCTGTTCAAGCGCCATCTAC | 1.17 RPM ratio (pull-down/input) |
| GATGATTGTTCTCCCAGCTGATGAATTAGTAGGATCGAGTAAACAAATTTTCCTAATCTTTCTGTTCAAGCGCCATCTAC | 0.889 RPM ratio (pull-down/input) |
| GATGATTGTTCTCCCAGCTGATGAATTCGCTGAATCGAGTAAACAAATTTTCCTAATCTTTCTGTTCAAGCGCCATCTAC | 0.92 RPM ratio (pull-down/input) |
| GATGATTGTTCTCCCAGCTGATGAATTCGCTCGCTCGAGTAAACAAATTTTCCTAATCTTTCTGTTCAAGCGCCATCTAC | 0.764 RPM ratio (pull-down/input) |
| GATGATTGTTCTCCCAGCTGATGAATTCCTGGCCTCGAGTAAACAAATTTTCCTAATCTTTCTGTTCAAGCGCCATCTAC | 0.755 RPM ratio (pull-down/input) |
| GATGATTGTTCTCCCAGCTGATGAATTGTTATGGTCGAGTAAACAAATTTTCCTAATCTTTCTGTTCAAGCGCCATCTAC | 1.51 RPM ratio (pull-down/input) |

| Sequence | binding signal |
| --- | --- |
| GATGATTGTTCTCCCAGCTGATGAATTACGCGAGTCGAGTAAACAAATTTTCCTAATCTTTCTGTTCAAGCGCCATCTAC | 0.949 RPM ratio (pull-down/input) |
| GATGATTGTTCTCCCAGCTGATGAATTCACGCTTTCGAGTAAACAAATTTTCCTAATCTTTCTGTTCAAGCGCCATCTAC | 0.98 RPM ratio (pull-down/input) |
| GATGATTGTTCTCCCAGCTGATGAATTCAAAAAATCGAGTAAACAAATTTTCCTAATCTTTCTGTTCAAGCGCCATCTAC | 0.976 RPM ratio (pull-down/input) |
| GATGATTGTTCTCCCAGCTGATGAATTTCTCGTCTCGAGTAAACAAATTTTCCTAATCTTTCTGTTCAAGCGCCATCTAC | 0.786 RPM ratio (pull-down/input) |
| GATGATTGTTCTCCCAGCTGATGAATTTCGGCACTCGAGTAAACAAATTTTCCTAATCTTTCTGTTCAAGCGCCATCTAC | 0.806 RPM ratio (pull-down/input) |
| GATGATTGTTCTCCCAGCTGATGAATTTATTACTTCGAGTAAACAAATTTTCCTAATCTTTCTGTTCAAGCGCCATCTAC | 1.29 RPM ratio (pull-down/input) |
| GATGATTGTTCTCCCAGCTGATGAATTTCAGGCCTCGAGTAAACAAATTTTCCTAATCTTTCTGTTCAAGCGCCATCTAC | 0.784 RPM ratio (pull-down/input) |
| GATGATTGTTCTCCCAGCTGATGAATTAACCGCCTCGAGTAAACAAATTTTCCTAATCTTTCTGTTCAAGCGCCATCTAC | 0.908 RPM ratio (pull-down/input) |
| GATGATTGTTCTCCCAGCTGATGAATTGTGTGCATCGAGTAAACAAATTTTCCTAATCTTTCTGTTCAAGCGCCATCTAC | 1.46 RPM ratio (pull-down/input) |
| GATGATTGTTCTCCCAGCTGATGAATTTAGACACTCGAGTAAACAAATTTTCCTAATCTTTCTGTTCAAGCGCCATCTAC | 1.01 RPM ratio (pull-down/input) |
| GATGATTGTTCTCCCAGCTGATGAATTGAAATTTTCGAGTAAACAAATTTTCCTAATCTTTCTGTTCAAGCGCCATCTAC | 1 RPM ratio (pull-down/input) |
| GATGATTGTTCTCCCAGCTGATGAATTGCTCTACTCGAGTAAACAAATTTTCCTAATCTTTCTGTTCAAGCGCCATCTAC | 0.974 RPM ratio (pull-down/input) |
| GATGATTGTTCTCCCAGCTGATGAATTAACTCAGTCGAGTAAACAAATTTTCCTAATCTTTCTGTTCAAGCGCCATCTAC | 0.845 RPM ratio (pull-down/input) |
| GATGATTGTTCTCCCAGCTGATGAATTCTCCGATTCGAGTAAACAAATTTTCCTAATCTTTCTGTTCAAGCGCCATCTAC | 0.874 RPM ratio (pull-down/input) |
| GATGATTGTTCTCCCAGCTGATGAATTCGGAATGTCGAGTAAACAAATTTTCCTAATCTTTCTGTTCAAGCGCCATCTAC | 0.841 RPM ratio (pull-down/input) |
| GATGATTGTTCTCCCAGCTGATGAATTTCAAGTCTCGAGTAAACAAATTTTCCTAATCTTTCTGTTCAAGCGCCATCTAC | 0.741 RPM ratio (pull-down/input) |
| GATGATTGTTCTCCCAGCTGATGAATTCTTAGACTCGAGTAAACAAATTTTCCTAATCTTTCTGTTCAAGCGCCATCTAC | 0.849 RPM ratio (pull-down/input) |
| GATGATTGTTCTCCCAGCTGATGAATTCACGGGGTCGAGTAAACAAATTTTCCTAATCTTTCTGTTCAAGCGCCATCTAC | 0.741 RPM ratio (pull-down/input) |
| GATGATTGTTCTCCCAGCTGATGAATTTCTTGAGTCGAGTAAACAAATTTTCCTAATCTTTCTGTTCAAGCGCCATCTAC | 0.919 RPM ratio (pull-down/input) |
| GATGATTGTTCTCCCAGCTGATGAATTCACTTATTCGAGTAAACAAATTTTCCTAATCTTTCTGTTCAAGCGCCATCTAC | 0.87 RPM ratio (pull-down/input) |
| GATGATTGTTCTCCCAGCTGATGAATTAAAAAGGTCGAGTAAACAAATTTTCCTAATCTTTCTGTTCAAGCGCCATCTAC | 0.84 RPM ratio (pull-down/input) |

| Sequence | binding signal |
| --- | --- |
| GATGATTGTTCTCCCAGCTGATGAATTTACCAAATCGAGTAAACAAATTTTCCTAATCTTTCTGTTCAAGCGCCATCTAC | 1.65 RPM ratio (pull-down/input) |
| GATGATTGTTCTCCCAGCTGATGAATTCGTAGCATCGAGTAAACAAATTTTCCTAATCTTTCTGTTCAAGCGCCATCTAC | 1.03 RPM ratio (pull-down/input) |
| GATGATTGTTCTCCCAGCTGATGAATTATAGGTATCGAGTAAACAAATTTTCCTAATCTTTCTGTTCAAGCGCCATCTAC | 1.13 RPM ratio (pull-down/input) |
| GATGATTGTTCTCCCAGCTGATGAATTATATCTGTCGAGTAAACAAATTTTCCTAATCTTTCTGTTCAAGCGCCATCTAC | 1.08 RPM ratio (pull-down/input) |
| GATGATTGTTCTCCCAGCTGATGAATTTGTCTGCTCGAGTAAACAAATTTTCCTAATCTTTCTGTTCAAGCGCCATCTAC | 0.987 RPM ratio (pull-down/input) |
| GATGATTGTTCTCCCAGCTGATGAATTACAAAAGTCGAGTAAACAAATTTTCCTAATCTTTCTGTTCAAGCGCCATCTAC | 1.35 RPM ratio (pull-down/input) |
| GATGATTGTTCTCCCAGCTGATGAATTACTTAGGTCGAGTAAACAAATTTTCCTAATCTTTCTGTTCAAGCGCCATCTAC | 0.952 RPM ratio (pull-down/input) |
| GATGATTGTTCTCCCAGCTGATGAATTCCCCCGGTCGAGTAAACAAATTTTCCTAATCTTTCTGTTCAAGCGCCATCTAC | 0.738 RPM ratio (pull-down/input) |
| GATGATTGTTCTCCCAGCTGATGAATTTTCCGCATCGAGTAAACAAATTTTCCTAATCTTTCTGTTCAAGCGCCATCTAC | 1.22 RPM ratio (pull-down/input) |
| GATGATTGTTCTCCCAGCTGATGAATTTCATAGCTCGAGTAAACAAATTTTCCTAATCTTTCTGTTCAAGCGCCATCTAC | 0.849 RPM ratio (pull-down/input) |
| GATGATTGTTCTCCCAGCTGATGAATTGCGCAGTTCGAGTAAACAAATTTTCCTAATCTTTCTGTTCAAGCGCCATCTAC | 1.08 RPM ratio (pull-down/input) |
| GATGATTGTTCTCCCAGCTGATGAATTGCGTATTTCGAGTAAACAAATTTTCCTAATCTTTCTGTTCAAGCGCCATCTAC | 1.38 RPM ratio (pull-down/input) |
| GATGATTGTTCTCCCAGCTGATGAATTAGGCGTATCGAGTAAACAAATTTTCCTAATCTTTCTGTTCAAGCGCCATCTAC | 0.998 RPM ratio (pull-down/input) |
| GATGATTGTTCTCCCAGCTGATGAATTGTCATTCTCGAGTAAACAAATTTTCCTAATCTTTCTGTTCAAGCGCCATCTAC | 1.11 RPM ratio (pull-down/input) |
| GATGATTGTTCTCCCAGCTGATGAATTTATACTCTCGAGTAAACAAATTTTCCTAATCTTTCTGTTCAAGCGCCATCTAC | 1.14 RPM ratio (pull-down/input) |
| GATGATTGTTCTCCCAGCTGATGAATTCGAGGTGTCGAGTAAACAAATTTTCCTAATCTTTCTGTTCAAGCGCCATCTAC | 0.85 RPM ratio (pull-down/input) |
| GATGATTGTTCTCCCAGCTGATGAATTTCTCACATCGAGTAAACAAATTTTCCTAATCTTTCTGTTCAAGCGCCATCTAC | 1.01 RPM ratio (pull-down/input) |
| GATGATTGTTCTCCCAGCTGATGAATTCGTATCATCGAGTAAACAAATTTTCCTAATCTTTCTGTTCAAGCGCCATCTAC | 1.1 RPM ratio (pull-down/input) |
| GATGATTGTTCTCCCAGCTGATGAATTTTTTGATTCGAGTAAACAAATTTTCCTAATCTTTCTGTTCAAGCGCCATCTAC | 1.02 RPM ratio (pull-down/input) |
| GATGATTGTTCTCCCAGCTGATGAATTGGAGGTTTCGAGTAAACAAATTTTCCTAATCTTTCTGTTCAAGCGCCATCTAC | 0.79 RPM ratio (pull-down/input) |
| GATGATTGTTCTCCCAGCTGATGAATTTAATTTATCGAGTAAACAAATTTTCCTAATCTTTCTGTTCAAGCGCCATCTAC | 1.23 RPM ratio (pull-down/input) |
